{"source": "PubChem BioAssay AID588855", "about": "(National Center for Advancing Translational Sciences (NCATS), 2011)", "note": "Hit rate of the full screen: of about 410,000 compounds, about 5,000 (1.2%) were called active. The shares of active, inactive and inconclusive entries below differ from those in the screen. Calls come from the whole dose curve; as a rule, active = well fitted inhibition curve with a large enough effect; inconclusive = small, poorly fitted or top-dose-only effect; inactive = no such curve, though single readings can be large or run the other way. Potencies beside an inconclusive call are fits to weak or partial responses and may not hold up. % is set by controls: 0 for no effect and ±100 for the full control effect; potency is the fitted concentration of half-maximal effect; tags give direction and shape of the fitted curve."}
{"experiment": "qHTS for Inhibitors of TGF-b; note: nearly all actives have a fitted effect of over 65% in size", "conditions": "HepG2 CAGA-GFP TGF-b/SMAD3 reporter, GFP fluorescence, 18 h, TGF-beta stimulated, 500 pg/mL final; series mostly up to 46.1 µM; activity, negative = inhibition: at the top concentration", "how_it_was_run": "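HEPG2 CAGA-GFP reporter cells (1000/well, DMEM with 1% FBS) received compounds, then recombinant TGF-beta at 500 pg/mL final for 18 hours at 37 degrees C. Per-cell GFP summed per well was normalised to unstimulated and stimulated DMSO controls before curve fitting.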"}
{"smiles": "COc1ccc2[nH]c(C(O)C(O)c3nc4c(OC)c(OC)ccc4[nH]3)nc2c1OC", "note": "(stereo not drawn)", "activity, negative = inhibition": "inactive: -13.7%"}
{"smiles": "COc1ccc(C)cc1N=Nc1ccc(O)c2ncccc12", "Potency": "active: 7.08 µM"}
{"smiles": "Cc1ccc(CNC(=O)c2ccc3oc(=O)n(Cc4ccccc4)c3c2)cc1", "Potency": "inconclusive: 39.8 µM [inhibitor, partial curve, poor fit]"}
{"smiles": "Cc1ccc2c(CC(=O)Nc3ccc(S(=O)(=O)N4CCC(C)CC4)cc3)coc2c1", "Potency": "inconclusive: 31.6 µM [inhibitor, single point]"}
{"smiles": "Cc1nn(-c2ccccc2)c2c1N(CCCC(=O)NCc1ccc(OC(C)C)cc1)C(=O)CS2", "Potency": "inconclusive: 17.8 µM [inhibitor, partial curve, poor fit]"}
{"smiles": "COc1ccc(Cc2cc(NCc3ccccc3)c3ncn(C(C)C)c3c2)cc1", "Potency": "inconclusive: 25.1 µM [inhibitor, single point]"}
{"smiles": "COC(=O)c1cc(S(=O)(=O)NCC2CCN(Cc3cccc(Cl)c3)CC2)c[nH]1", "activity, negative = inhibition": "inactive: 3.91%"}
{"smiles": "Cn1c(=O)c2c(ncn2CC(=O)OCCCC(=O)c2ccc(Br)cc2)n(C)c1=O", "activity, negative = inhibition": "inactive: 4.8%"}
{"smiles": "CCc1ccccc1NC(=O)Cn1nc(-c2cc(C)ccc2C)c2c(c1=O)CCCC2", "Potency": "inconclusive: 0.562 µM [inhibitor, partial curve, poor fit]"}
{"smiles": "CCCn1c2ccccc2c2cnn(CC(=O)Nc3ccccc3OC)c(=O)c21", "Potency": "inconclusive: 35.5 µM [inhibitor, partial curve, poor fit]"}
{"smiles": "COc1ccc(-c2cc([C@H]3[C@H]4C=CC[C@@H](C)[C@@H]4C(=O)N3Cc3ccccc3)ccc2F)cc1OC", "Potency": "inconclusive: 22.4 µM [inhibitor, single point]"}
{"smiles": "CCOC(=O)C1(Cc2ccc(Cl)cc2)CCN(C(=O)CCc2ccncc2)CC1", "activity, negative = inhibition": "inactive: -15.4%"}
{"smiles": "Cc1cccc(NC(c2cccc(Cl)c2)c2ccc3cccnc3c2O)n1", "note": "(stereo not drawn)", "Potency": "inconclusive: 15.8 µM [inhibitor, partial curve, poor fit]"}
{"smiles": "COc1cccc(C(=O)Nc2ccc(F)cc2F)c1", "activity, negative = inhibition": "inactive: -4.27%"}
{"smiles": "O=c1cc(-c2ccccc2Cl)oc2c(NS(=O)(=O)c3ccccc3OC(F)(F)F)ccc(O)c12", "Potency": "inconclusive: 35.5 µM [inhibitor, single point]"}
{"smiles": "CCOC(=O)c1sc(NC(=O)Nc2cccc(Cl)c2)cc1C", "Potency": "inconclusive: 25.1 µM [inhibitor, single point]"}
{"smiles": "Nc1c2c(nc3ccc(Br)cc13)N(c1ccccc1)CC2", "Potency": "inconclusive: 10 µM [inhibitor, partial curve]"}
{"smiles": "COCCNC(=O)CN1C(=O)NC(c2ccccc2)(c2ccccc2)C1=O", "activity, negative = inhibition": "inactive: -2.44%"}
{"smiles": "O=Nc1ccc(O)c2ncccc12", "Potency": "inconclusive: 20 µM [inhibitor, single point]"}
{"smiles": "N#C/C(=C\\c1ccccc1)C(=O)N(c1ccccn1)C1CCCCC1", "Potency": "inconclusive: 35.5 µM [inhibitor, single point]"}
{"smiles": "CCCCSCCCNC(=O)c1cn(CC)c2ccc(S(=O)(=O)N3CCOCC3)cc2c1=O", "Potency": "inconclusive: 35.5 µM [inhibitor, single point]"}
{"smiles": "Cc1ccc(S(=O)(=O)N(Cc2ccc(Cl)cc2)c2ccccc2C(=O)NCc2cccnc2)cc1", "Potency": "inconclusive: 12.6 µM [inhibitor, partial curve, poor fit]"}
{"smiles": "O=C(CN1CCOCC1)NN=Cc1ccc([N+](=O)[O-])o1", "Potency": "inconclusive: 11.2 µM [inhibitor, single point]"}
{"smiles": "O=C(N/N=C/c1cccc([N+](=O)[O-])c1O)C(O)(c1ccccc1)c1ccccc1", "activity, negative = inhibition": "inactive: -6.82%"}
{"smiles": "COC(=O)c1ccc(NC(=O)c2cc3cc(C)ccc3n2C)cc1", "Potency": "inconclusive: 5.01 µM [inhibitor, partial curve]"}
{"smiles": "CC(OC(=O)Cn1cnc2ccccc2c1=O)C(=O)NCc1ccccc1", "note": "(stereo not drawn)", "Potency": "inconclusive: 2 µM [inhibitor, partial curve, poor fit]"}
{"smiles": "Cc1cc(C)cc(NC(=O)N(CCC#N)Cc2cccs2)c1", "Potency": "inconclusive: 11.2 µM [inhibitor, partial curve, poor fit]"}
{"smiles": "COc1ccc(NC(=O)CSc2nc3ccccc3n2CC(=O)NCc2ccc(F)cc2)cc1", "Potency": "inconclusive: 7.94 µM [inhibitor, partial curve]"}
{"smiles": "O=C(Nc1ccccc1)NN(C(=O)CCl)c1ccccc1", "Potency": "inconclusive: 35.5 µM [inhibitor, single point]"}
{"smiles": "OCCN1CCN(CCCN2c3ccccc3Sc3ccc(Cl)cc32)CC1", "Potency": "inconclusive: 25.1 µM [inhibitor, single point]"}
{"smiles": "Cc1ccc(-n2ncc3c(N4CCN(c5ccc(F)cc5)CC4)ncnc32)c(C)c1", "Potency": "inconclusive: 3.55 µM [inhibitor, partial curve, poor fit]"}
{"smiles": "NS(=O)(=O)c1ccc(CCNC(=O)COC(=O)c2nc(Cl)ccc2Cl)cc1", "activity, negative = inhibition": "inactive: -0.323%"}
{"smiles": "Cc1cccc(C)c1NC(=O)COC(=O)c1ccc2[nH]c3c(c2c1)CCCC3", "Potency": "inconclusive: 7.94 µM [inhibitor, partial curve, poor fit]"}
{"smiles": "Cc1nnc(NC(=O)CCC(=O)N2CCN(S(=O)(=O)c3cc([N+](=O)[O-])ccc3C)CC2)s1", "activity, negative = inhibition": "inactive: 6.26%"}
{"smiles": "COc1ccccc1NS(=O)(=O)c1ccc(C)c(NS(=O)(=O)c2cc(C(=O)O)cc(C)c2C)c1", "activity, negative = inhibition": "inactive: -8.41%"}
{"smiles": "CC(=O)N1CCc2c(sc(NC(=O)c3ccc([N+](=O)[O-])o3)c2C#N)C1", "Potency": "active: 5.62 µM"}
{"smiles": "Oc1cccc(Nc2nc(O)c(/C=C3\\C=Nc4ccccc43)s2)c1", "Potency": "inconclusive: 35.5 µM [inhibitor, single point]"}
{"smiles": "COC(=O)C1=C(C)N(C)C(=S)NC1c1ccc(Cl)cc1", "note": "(stereo not drawn)", "Potency": "inconclusive: 17.8 µM [inhibitor, single point]"}
{"smiles": "CC(C)C(C(=O)NC1=NCCS1)c1ccc(Cl)cc1", "note": "(stereo not drawn)", "Potency": "inconclusive: 20 µM [inhibitor, single point]"}
{"smiles": "C/C=C/c1ccc(OCCOCCOc2cccc3cccnc23)c(OC)c1", "activity, negative = inhibition": "inactive: -27%"}
{"smiles": "COc1cccc(C(=O)CN2C(=O)C(C)(C)Oc3ccc(C(=O)N4CCOCC4)cc32)c1", "Potency": "inconclusive: 10 µM [inhibitor, partial curve, poor fit]"}
{"smiles": "COc1ccc(C(=O)c2ccsc2N)cc1", "activity, negative = inhibition": "inactive: -19.5%"}
{"smiles": "CC1C(=O)N(Cc2cn(Cc3ccco3)nn2)CCS(=O)(=O)N1Cc1ccc(-c2ccc(F)cc2Cl)cc1", "note": "(stereo not drawn)", "Potency": "inconclusive: 14.1 µM [inhibitor, partial curve, poor fit]"}
{"smiles": "CN(C)c1ccc(/C=C/C(=O)c2cccnc2)cc1", "activity, negative = inhibition": "inactive: 47.6%"}
{"smiles": "COc1ccc(CC(=O)NC(C)C2COc3ccccc3O2)cc1OC", "note": "(stereo not drawn)", "activity, negative = inhibition": "inactive: -25%"}
{"smiles": "Cc1ccc(Cn2cc(S(=O)(=O)c3ccccc3)c(=O)c3cc(F)c(N4CCOCC4)cc32)cc1", "activity, negative = inhibition": "inactive: -23.2%"}
{"smiles": "Cc1onc(-c2ccccc2Cl)c1-c1nc(-c2ccccn2)no1", "activity, negative = inhibition": "inactive: 5.49%"}
{"smiles": "CCCCn1c(=O)c2c(O)cc(=O)oc2c2ccccc21", "activity, negative = inhibition": "inactive: 17.5%"}
{"smiles": "Cc1[nH]n(C(N)=S)c(=O)c1N=Nc1ccc2ccccc2c1", "activity, negative = inhibition": "inactive: 1.41%"}
{"smiles": "Cc1nc2ccccc2c2oc(C(=O)N3CCc4ccccc4C3)cc12", "activity, negative = inhibition": "inactive: -28.9%"}
{"smiles": "COc1ccc(-c2cn3nc(N4CCCC(C(=O)Nc5ccccc5F)C4)sc3n2)cc1", "note": "(stereo not drawn)", "Potency": "inconclusive: 7.94 µM [inhibitor, partial curve]"}
{"smiles": "Cc1cc(Cl)ccc1Oc1ncc(-c2ccc(Cl)cc2)cn1", "Potency": "inconclusive: 35.5 µM [inhibitor, partial curve, poor fit]"}
{"smiles": "CCCCN(CCCNC(=O)c1cc(Nc2ccc(OC)cc2OC)nc2ccccc12)Cc1ccccc1", "Potency": "inconclusive: 35.5 µM [inhibitor, partial curve, poor fit]"}
{"smiles": "CC(C)(C)C(=O)Nc1scc(-c2ccc(-c3ccccc3)cc2)c1C(=O)O", "Potency": "inconclusive: 15.8 µM [inhibitor, single point]"}
{"smiles": "CCCCOC(=O)c1ccc(NC(=O)C2(c3cccs3)CCOCC2)cc1", "Potency": "inconclusive: 25.1 µM [inhibitor, single point]"}
{"smiles": "CCNc1ccc(/C=C/c2ccnc3ccccc23)cc1", "activity, negative = inhibition": "inactive: 0.215%"}
{"smiles": "CCOC(=O)c1c(NC(=O)CSc2cn(CCNC(=O)c3ccc(OC)cc3)c3ccccc23)sc2c1CCC2", "Potency": "inconclusive: 6.31 µM [inhibitor, single point]"}
{"smiles": "COc1ccccc1-c1cc(C(=O)Nc2c(C)nn(Cc3ccc(Cl)cc3)c2C)no1", "Potency": "inconclusive: 20 µM [inhibitor, single point]"}
{"smiles": "O=C(c1ccc(Cl)s1)N1CCOCC1", "Potency": "inconclusive: 35.5 µM [inhibitor, single point]"}
{"smiles": "CCOC(=O)c1ccc(S(=O)(=O)NNc2ccc(C(F)(F)F)cn2)cc1", "activity, negative = inhibition": "inactive: 4.27%"}
{"smiles": "CCOC(=O)c1ccc(N2C(=O)c3n[nH]c(-c4ccco4)c3C2c2cccc(F)c2)cc1", "note": "(stereo not drawn)", "Potency": "inconclusive: 1.78 µM [inhibitor, full curve, poor fit]"}
{"smiles": "COc1ccc(CNC(=O)O[C@H]2CN(C(=O)OC(C)C)N(C(=O)OC(C)C)[C@@H]3CN(S(=O)(=O)c4ccc(C)cc4)C[C@]23O)cc1OC", "activity, negative = inhibition": "inactive: -10.2%"}
{"smiles": "COc1ccccc1C(=O)Nc1ccc(-c2nc3cc(C)cc(C)c3o2)cc1", "activity, negative = inhibition": "inactive: 18%"}
{"smiles": "CCc1ccccc1N(C)C(=O)c1cc2c(s1)-c1c(C)cccc1OC2", "Potency": "inconclusive: 22.4 µM [inhibitor, single point]"}
{"smiles": "Cc1ccc(Cn2c(C)c(CNCc3ccccc3F)c(C(=O)O)c2C)cc1", "Potency": "inconclusive: 0.282 µM [inhibitor, full curve, poor fit]"}
{"smiles": "OC(c1ccc(-c2ccccc2)cc1)c1ncc(-c2ccccc2)[nH]1", "note": "(stereo not drawn)", "activity, negative = inhibition": "inactive: 7.17%"}
{"smiles": "O=C(Cn1ncc2c3ccccc3n(Cc3ccccc3)c2c1=O)NCc1ccccc1", "activity, negative = inhibition": "inactive: -9.52%"}
{"smiles": "Cc1ccc(NC(=O)C2CCN(S(=O)(=O)c3c(C)noc3/C=C/c3ccco3)CC2)nc1", "activity, negative = inhibition": "inactive: -30.8%"}
